These results are taken from the RNAGym collection of RNA variant scans (doi:10.1093/nar/gkz1192).

To fix the notation:
B1: CPEB3 Ribozyme (parent)
chain: UAACAGGGGGCCACAGCAGAAGCGUUCACGUCGCAGCCCCUGUCAGAUUCUGGUGAAUCUGCGAAUUCUGCUGUAUAUCUC

Read counts are not given, so values of variants with three or more changes are uncertain.

The series covers variants of B1. The experiment in a line: self-cleavage, relative activity (ratio to wild type); higher = more cleavage; in vitro, sequencing. The essentials: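 After error-prone PCR and barcoding, CPEB3 ribozyme mutant libraries were transcribed with T7 RNA polymerase at 37°C for 5 hours, then given 15 min with DNase I before an EDTA stop, and they cleaved during both steps. Reverse transcription with template switching preceded Illumina sequencing. Relative activity divides a variant's cleaved/total read fraction by the unmutated ribozyme's. At least 5 reads were required per variant, and three batches were averaged.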
As to A13G A20G U41C, the self-cleavage is 0.71. In the case of A13G A18G A35G G52U it was 0.36. In the case of A13G A21C A77U, the self-cleavage worked out at 0.44. Regarding A13G A15G U43A, the self-cleavage turned out to be 0.37. Turning to A13G A28G C29U U43C G61A U78C, the self-cleavage is 0.05. In the case of A13G A15U A21G A45G U78C, the self-cleavage was determined as 0.06. On to A13G A20U U54C A56G A57G, for which the self-cleavage came to 0.05. In the case of A13G C29U C38U U51C it was 0.28; in that of A13G A28G U69A, 0.27. On to A13G A21G A28G, for which the self-cleavage came to 0.46.

In the case of A13G A21C U80A, the self-cleavage amounted to 0.1. For A13G A20G A45U G53A U72C the value was 0.22; for A13G C17U G33A U48C A56G, 0.05. As to A13G C23G C32U A75G, the self-cleavage came to 0.19. Consider A13G A18G U41C U66C, for which the self-cleavage is 0.21. For A13G A20G A65G U72C the value was 0.11; for A13G A21G G30C U51C, 0.05.

Turning to A13G A15G G53C U80A, the self-cleavage is 0.37.

Regarding A13G A20G C23U C29A U49A A56G, the self-cleavage is 0.08. For A13G A28C U31A U48C G63A the value was 0.28; for A13G A47G U60C U66A, 0.23; for A13G A28G U41A A57G U69C, 0.19.

In the case of A13G A35U A45G U69A U74C, the self-cleavage worked out at 0.17. As for A13G A18G A20G U41C U43C A65G U80A, the self-cleavage amounted to 0. As for A13G A56G A57G U66C U69C, the self-cleavage amounted to 0.08. For the variant A13G A20G U26C U60C, the self-cleavage worked out at 0.3.

Consider A13G C32A U41C U67A U72C, for which the self-cleavage stood at 0.09.

In the case of A13G C23A U25G G30A, the self-cleavage came out at 0.35.

For the variant A13G A20U U26C G42A, the self-cleavage was found to be 0.22. For A13G A35G U41C U54C A65U U67A the value was 0; for A13G A15G C29A G70U, 0.14; for A13G A18C A35U U72C, 0.21. For A13G C29A U72C the value was 0.34. A13G A15G C38A U49A U54C C79A: the self-cleavage is 0.42. Take A13G A18U A20G G70A U72C: the self-cleavage came out at 0.12. In the case of A13G A28C U51A A56G A57G G63C U80C it was 0.09; in that of A13G C17U A28G A47G A64U, 0.23. For A13G A35G U41A U67A the value was 0.17; for A13G A18G U25A A56C, 0.14.

Turning to A13G C37G A57G, the self-cleavage is 0.5. In the case of A13G A28U U60C it was 0.17; in that of A13G A20G U26A A45G U60C, 0.22.

A13G A47G U60C U66A U72G: the self-cleavage was 0.13. For A13G A20C G24A G52C U69A U80A, the self-cleavage worked out at 0.34. In the case of A13G A18G U48C, the self-cleavage stood at 0.18. Regarding A13G A21U A35G G55U U69C, the self-cleavage was determined as 0.07. Take A13G A35G G46C U49C: the self-cleavage came out at 0.05.

A13G A15U A18G U41A U54C U67C: the self-cleavage worked out at 0. As to A13G A20G U31C U72A, the self-cleavage stood at 0.18. In the case of A13G A15G G52A U76C it was 0.18. In the case of A13G A20C A65U U67A U72A it was 0.06; in that of A13G A15U A28G A35G C40A U41C A47G, 0; in that of A13G A18C A35U U66G A77U, 0.19. In the case of A13G A21G U25C U60C U78C it was 0.05. With A13G A35U U54C, the self-cleavage is 0.65.

As to A13G C14U A21U A65G U66C, the self-cleavage amounted to 0.05. In the case of A13G C29U C38U A56U it was 0.08. For A13G A28U A45G the value was 0.21. In the case of A13G A57C U60A A65U it was 0.08.

With A13G A18U U26C, the self-cleavage was determined as 0.17.

For the variant A13G A18G A35U G36A U67C, the self-cleavage worked out at 0.12. For A13G C14U A18G A35U U48C U72C, the self-cleavage worked out at 0.16. In the case of A13G A20U U26C C29U U48C A64G A75G it was 0.04. In the case of A13G A15G U25C U54A it was 0.07; in that of A13G C32U U58C, 0.11. As to A13G A21G U67C, the self-cleavage was 0.12. For A13G A45G U48A U69C U80A the value was 0.13; for A13G A15G U26C G33A G36C G61C U67C, 0.05. For A13G A18G C32U U43A A47G U54C A57G the value was 0.03; for A13G A20U C40A C50A, 0.15. Regarding A13G C32U A65G U72C, the self-cleavage stood at 0.11. In the case of A13G A18G A35U U41C, the self-cleavage was 0.1.

With A13C U49G U78C, the self-cleavage came out at 0.14. For A13G C14U C32U G55U, the self-cleavage amounted to 0.21.

As for A13G A15G A77U, the self-cleavage was determined as 0.53. For the variant A13G A28U G73A, the self-cleavage was determined as 1.08. In the case of A13G A35G U49C it was 0.15; in that of A13G A15G C38U U41A, 0.08; in that of A13G A18U U58C A64U U69A A77G, 0.09.

Consider A13G A20G U26C U41C U60A A64U U67C, for which the self-cleavage was 0.01.

Regarding A13G A35G U41C A57G U69C, the self-cleavage came to 0.16. Regarding A13G A15U A21G C38U A56C, the self-cleavage turned out to be 0.07. For A13G A18G U31G U41A the value was 0.26; for A13G A18G U43A A56G, 0.11; for A13G A20G G42U, 0.17.

For A13G C23A A35G, the self-cleavage worked out at 0.11. On to A13G A21C A45C A77G, for which the self-cleavage turned out to be 0.06.

Turning to A13G A20G G30U, the self-cleavage is 0.05. Regarding A13G A20G G30C, the self-cleavage amounted to 0.3. In the case of A13G A20G C38A U43C it was 0.06; in that of A13G C23U U26C A45C U69C, 0.15. In the case of A13G A21G C32U it was 0.1.

As to A13G A47G A64G, the self-cleavage turned out to be 0.69.

On to A13G A28G U48G U60C G63U A77G, for which the self-cleavage is 0.24. For A13C U43A A64G U76G, the self-cleavage was determined as 0.88. Regarding A13G A28G A56G U67C A75U U76C, the self-cleavage came to 0.03. On to A13G A35C U48G C50G U51C U67A, for which the self-cleavage came to 0.2. In the case of A13G A35G U54G A57U U58C G73A it was 0.24; in that of A13G A45C U60C, 0.35; in that of A13G A45G U54C A65G, 0.26.

Take A13G A45C U54C: the self-cleavage is 0.23.

For the variant A13G A21G C50U U51C U60A U78C, the self-cleavage came to 0.15. Regarding A13G C32U A47C, the self-cleavage was 0.07.

As to A13G C32U C39U A45U, the self-cleavage worked out at 0.21. For A13G A56G U74C the value was 0.67; for A13G A18G C32A A64C U69C U72A, 0.05. In the case of A13G A21U A56G A57C it was 0.1; in that of A13G A20G U25C U43C G52U A57G U72C, 0.8. For A13C U48C A64C the value was 0.14; for A13G A18U C29G, 0.1. A13G A18U A28U A35G: the self-cleavage is 0.1. For A13G A18U A28U U31A U76G U80C the value was 0.06; for A13G A20G U41C U48C A56G A64G, 0.17. In the case of A13G C29U U67A it was 0.06.

On to A13G A15U C23U U26C A65G, for which the self-cleavage amounted to 0.23.

A13G A18C U26C: the self-cleavage is 0.06.

Consider A13G A20G U26A U48C U60C, for which the self-cleavage was found to be 0.06. Regarding A13G A57G U60C, the self-cleavage was 0.27.

On to A13G A28U C39G G55A, for which the self-cleavage came to 0.12. As for A13G A18U U51C A57G U80C, the self-cleavage is 0.26. For A13G A45U G55A A77G the value was 0.24; for A13G A21G U51A A56U G70A C71G, 0.18; for A13G A15G U25A U43A U49C U72G, 0.1. In the case of A13G C29A U49A U51A, the self-cleavage is 0.21. Take A13G A20U A35G A57G: the self-cleavage amounted to 0.13. Regarding A13G C32A U48C A56G U80C, the self-cleavage amounted to 0.08. In the case of A13G C14U A45G U51C U54A U76A it was 0.88; in that of A13G A35G G55C, 0.7. In the case of A13G A45G U49A A56G A77U U80A it was 0.55; in that of A13G A56G U60A C68G A75G U78C, 0.12; in that of A13G A21U U41A C44A, 0.21.

Regarding A13G A21G U48C U49C U58C U60A, the self-cleavage was found to be 0.11.

Consider A13G A35G U66C, for which the self-cleavage came out at 0.38. Regarding A13G A20U U72A, the self-cleavage turned out to be 0.12. A13G A20U U72C: the self-cleavage stood at 0.12. On to A13G A15U G33A C44G A56G, for which the self-cleavage came out at 0.13.

In the case of A13G A18U U31C U51C, the self-cleavage is 0.08. For A13G A28G U48C the value was 0.26; for A13C U51C U67C U69A, 0.2.

With A13C U43A U54A, the self-cleavage stood at 1.04.

As for A13G A35G U43C, the self-cleavage was determined as 0.13. In the case of A13G A20G U76A it was 0.81. In the case of A13G C29U A64C it was 0.43; in that of A13G A15G A20G U26A G36U U41A G73A, 0.05; in that of A13G A21G U25C U74C, 0.11. Turning to A13G C34U U43A U67A A77U, the self-cleavage worked out at 0.09.

As for A13G A20G U43A U76A, the self-cleavage came out at 1.12. For the variant A13G C40A U54C U69C U74C, the self-cleavage was determined as 0.14. For A13G A21G U25C the value was 0.31; for A13G A15U U26A C34G, 0.42; for A13G A15U U25A A65G, 0.06. Consider A13C U43C U54C U76C, for which the self-cleavage turned out to be 0.28. Regarding A13G A28G G63A U66C, the self-cleavage stood at 0.08. In the case of A13G A28U U49C A56G A65U it was 0.08. In the case of A13G C32A U58C C59U U69C U78A it was 0.05; in that of A13C U41C A45G A47G A56U U78C, 0.24; in that of A13G A18U U69C, 0.18. For A13G A45G U72C U78A the value was 0.92; for A13G A21G U72A U80C, 0.35; for A13G A28G U31A A64U U72C, 0.08. Turning to A13G A20C A45G G46U U51A U69A U78A, the self-cleavage was found to be 0.08. For A13G A45G A47G the value was 0.37; for A13G A18G A56G U60C U80C, 0.11. Take A13C U43C A47U U54G: the self-cleavage came to 0.14. In the case of A13G A21G G22A U49C A57U U72C it was 0.04. For A13G A18G C40U A45G A47U U48C U66G the value was 0.03; for A13C U43A A77U, 1.06.
